The text below walks through data of publication PMC4336329 (PLoS ONE, 2015).

The whole screen tested about 310,000 compounds, of which about 14,000 (4.5%) showed an effect of 50% or more. Effects have a minus sign here. The list shows a part of the results.
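Further: peak tail current of the secondary pulse compared with the same well before compound.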

Sequence of human ether-à-go-go-related gene (hERG) potassium channel (Q12809 whole entry, looked up): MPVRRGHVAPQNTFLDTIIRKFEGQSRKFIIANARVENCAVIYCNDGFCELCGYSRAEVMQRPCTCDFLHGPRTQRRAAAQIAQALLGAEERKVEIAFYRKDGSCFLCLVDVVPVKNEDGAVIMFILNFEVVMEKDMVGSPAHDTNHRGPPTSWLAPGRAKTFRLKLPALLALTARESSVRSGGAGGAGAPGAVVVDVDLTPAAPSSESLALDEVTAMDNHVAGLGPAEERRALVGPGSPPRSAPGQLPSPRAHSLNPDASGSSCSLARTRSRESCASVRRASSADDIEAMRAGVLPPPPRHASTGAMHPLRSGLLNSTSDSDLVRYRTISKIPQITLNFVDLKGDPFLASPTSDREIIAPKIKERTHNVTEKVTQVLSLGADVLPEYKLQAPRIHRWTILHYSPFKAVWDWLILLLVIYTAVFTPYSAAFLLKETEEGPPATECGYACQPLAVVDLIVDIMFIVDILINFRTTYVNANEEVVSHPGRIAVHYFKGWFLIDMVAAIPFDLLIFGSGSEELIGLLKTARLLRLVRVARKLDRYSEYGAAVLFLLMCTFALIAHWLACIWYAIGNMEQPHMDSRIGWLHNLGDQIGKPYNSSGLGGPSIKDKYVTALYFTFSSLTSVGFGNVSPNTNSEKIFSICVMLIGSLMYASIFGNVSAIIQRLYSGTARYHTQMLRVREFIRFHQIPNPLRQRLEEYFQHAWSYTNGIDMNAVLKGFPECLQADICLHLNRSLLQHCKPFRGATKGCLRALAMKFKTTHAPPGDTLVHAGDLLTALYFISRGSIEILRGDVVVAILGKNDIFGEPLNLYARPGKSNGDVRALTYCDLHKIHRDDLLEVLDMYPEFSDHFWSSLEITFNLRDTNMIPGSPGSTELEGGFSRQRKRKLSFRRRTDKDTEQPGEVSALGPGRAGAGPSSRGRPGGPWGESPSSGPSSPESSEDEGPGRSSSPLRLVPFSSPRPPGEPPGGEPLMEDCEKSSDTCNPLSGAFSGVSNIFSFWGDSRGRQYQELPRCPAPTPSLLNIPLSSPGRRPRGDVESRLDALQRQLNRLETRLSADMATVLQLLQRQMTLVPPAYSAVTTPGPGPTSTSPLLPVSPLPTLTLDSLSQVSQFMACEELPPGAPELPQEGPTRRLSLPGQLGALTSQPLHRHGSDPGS

The test addresses human ether-à-go-go-related gene (hERG) potassium channel (human, UniProt Q12809). The test is described as follows: primary screen, population patch clamp on CHO cells stably expressing hERG.
Regarding `COc1ccccc1C(C(=O)NC1CCCC1)N(C(=O)c1csnn1)C1CC1` (stereo not shown), the “hERG current change (%, negative = inhibition) at 10uM” value came to 15.2%.

Turning to `O=C(O)C1=C[C@@H](c2ccc(C(F)(F)F)cc2)C[C@@H](OCc2ccc(CO)cc2)O1`, the “hERG current change (%, negative = inhibition) at 10uM” value amounted to 16.7%.

Regarding `O=C(CCS(=O)(=O)c1ccccc1)Nc1ccccc1-c1nc2ccccc2s1`, the “hERG current change (%, negative = inhibition) at 10uM” value was determined as 12.1%.

On to `COc1cc(-c2nnc(SCC(=O)N(C)C3CCS(=O)(=O)C3)o2)cc(OC)c1OC` (stereo not shown), for which the “hERG current change (%, negative = inhibition) at 10uM” value came to 17.5%.

`CO/N=C/CC(=O)c1cnc(-c2ccc(Cl)cc2)s1`: the “hERG current change (%, negative = inhibition) at 10uM” value turned out to be 13.9%.

Take `COc1ccc(C2CC(c3ccccc3)=NN2C(=O)COC(=O)c2cccnc2)cc1` (stereo not shown): the “hERG current change (%, negative = inhibition) at 10uM” value is 9.31%.

With `Cc1cc(NC(=O)CCc2ccc(C)o2)no1`, the “hERG current change (%, negative = inhibition) at 10uM” value is 0.613%.

In the case of `CC(C)C12CN3CC(C(C)C)(CN(C1)C3c1ccccc1)C2O` (stereo not shown), the “hERG current change (%, negative = inhibition) at 10uM” value is given as -3.63%.

On to `CCOC(=O)c1c(C)[nH]c(C(=O)COC(=O)CNC(=O)c2ccccc2Cl)c1C`, for which the “hERG current change (%, negative = inhibition) at 10uM” value was 1.43%.

Turning to `COc1cc(C(=O)Oc2cccc(C(=S)N3CCOCC3)c2)cc(OC)c1OC`, the “hERG current change (%, negative = inhibition) at 10uM” value is 22.9%.

`O=C(NS(=O)(=O)N1CCCC1)C1=C(N2CCCC2)COC1=O`: the “hERG current change (%, negative = inhibition) at 10uM” value is recorded as 12.4%.

As to `O=c1c2ccccc2ncn1CCOCCOc1cccc(Br)c1`, the “hERG current change (%, negative = inhibition) at 10uM” value was -9.17%.

As to `CCCOc1ccc(CCN2CCC(=O)NC2=O)cc1C`, the “hERG current change (%, negative = inhibition) at 10uM” value was -0.389%.

Take `O=Cc1ccc(OCC(=O)NC(=O)NC2CCCCC2)cc1`: the “hERG current change (%, negative = inhibition) at 10uM” value is recorded as -23.5%.

On to `CC(C)(C)c1ccc(C(=O)O)c(C(=O)c2ccc(C(=O)O)cc2)c1`, for which the “hERG current change (%, negative = inhibition) at 10uM” value is -7.76%.

With `Cc1c(C(=O)N2CCCCCC2)c(S(=O)(=O)NCc2ccccc2Cl)c(C)n1C`, the “hERG current change (%, negative = inhibition) at 10uM” value was -0.552%.

As to `Cc1cccc(-n2ncc3c(N4CCC(C)CC4)ncnc32)c1`, the “hERG current change (%, negative = inhibition) at 10uM” value worked out at 12.6%.

As to `CC(CN1CCOCC1)OC(=O)c1ccccc1Br.Cl` (stereo not shown), the “hERG current change (%, negative = inhibition) at 10uM” value was 5.01%.

Consider `Cc1cccc(/C=N/NC(=O)c2ccc(Br)cc2)c1`, for which the “hERG current change (%, negative = inhibition) at 10uM” value came to 4.33%.

For the compound `COc1ccc(NC(=O)COC(=O)/C=C/c2cnc3ccccc3n2)cc1`, the “hERG current change (%, negative = inhibition) at 10uM” value is reported as 6.81%.

On to `O=C(NCCCN1CCOCC1)c1cc(C(=O)C2CCCCC2)c[nH]1`, for which the “hERG current change (%, negative = inhibition) at 10uM” value is recorded as -11.8%.

For `CCOCCCNC(=O)c1c[nH]c2c(CC)cccc2c1=O`, the “hERG current change (%, negative = inhibition) at 10uM” value stood at 31.5%.

As for `O=C(COc1ccc(S(=O)(=O)NC2CCCCC2)cc1Cl)Nc1ccc2c(c1)OCO2`, the “hERG current change (%, negative = inhibition) at 10uM” value worked out at 3.95%.

For `Cc1cccc(C)c1OCc1cc(C(=O)N2CCC[C@H]2C(N)=O)no1`, the “hERG current change (%, negative = inhibition) at 10uM” value came out at 9.25%.

Consider `CN1CCC(=NNC(=O)CN(c2ccc(Oc3ccccc3)cc2)S(C)(=O)=O)CC1`, for which the “hERG current change (%, negative = inhibition) at 10uM” value is listed as 9.51%.
